According to PubChem BioAssay AID1963576 (National Center for Advancing Translational Sciences (NCATS), 2024):
Among all 46,000 compounds or so, about 60 (0.1%) were called active. About 3% were inconclusive and are not listed. Calls come from the whole dose curve; as a rule, active = well fitted inhibition curve with a large enough effect; inconclusive = small, poorly fitted or top-dose-only effect; inactive = no such curve, though single readings can be large or run the other way. The list shows a part of the results.

assay: Primary qHTS assay for Inhibitors of ovarian cancer metastasis using an organotypic tumor microenvironment (TME) model.; note: nearly all actives have a fitted effect of over 65% in size;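 for activity change, negative = inhibition: plate controls were DMSO wells for no effect and tomatine positive control wells for full effect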; details: SKOV3ip1-GFP adhesion/invasion on 3D omental model, fluorescence; series mostly up to 45.8 µM; activity change, negative = inhibition: at the top concentration
Outline: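 A 3D layer of primary human omental fibroblasts, mesothelial cells, fibronectin and collagen I, grown 48 hr, received SKOV3ip1-GFP cells in serum-free medium plus compounds at 0.36-46 umol/L. After 2 hr RT and 16 hr 37 C, fixed adherent GFP cells were counted; normalized to DMSO and tomatine.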

outcome, inactive:
CCCn1c(=O)n(-c2ccccc2Cl)c(=O)c2sc3ccccc3c21
COc1ccc(C2=C(C)C(=NCCCN3CCN(c4cc(C)ccc4C)CC3)NS2(=O)=O)cc1
COc1ccc(N(CC(=O)Nc2cccc(Cl)c2C)S(=O)(=O)c2c(C)nn(C)c2C)cc1
Cc1ccc(NC(=O)c2cccc3c2C(=O)N(C2CCCCC2)C3)c(C)c1
Cc1ccccc1NC(=O)Cn1c(=O)oc2cc(Br)ccc21
COc1cccc(Cn2c(CNC(=O)Cc3cccc(C)c3)nc3cccnc32)c1
CCCn1cc(S(=O)(=O)c2ccccc2)c(=O)c2cc(F)c(N3CCCC(C)C3)cc21 (stereo not given)
CCCCCOc1c(Cl)cc(C(=O)N(Cc2ccc(C)o2)C2CCS(=O)(=O)C2)cc1Cl (stereo not given)
CC1=C(C(=O)Nc2ccccc2)C(c2cccnc2)n2nc(SCc3ccccc3Cl)nc2N1 (stereo not given)
CCOc1cccc(C(c2c(C)n(C)n(-c3ccccc3)c2=O)c2c(C)n(C)n(-c3ccccc3)c2=O)c1OC
COc1ccc(CCNC(=O)CCCn2c(=O)c3ccccc3n(CC(=O)Nc3cc(Cl)ccc3C)c2=O)cc1OC
Cc1ccccc1-c1noc(CCC(=O)Nc2cccc(C)c2C)n1
O=C(Nc1cccc(OCc2cc(=O)n3c4c(sc3n2)CCCC4)c1)c1ccc(F)cc1
CCOCCCNC(=O)C(Cc1ccccc1)NS(=O)(=O)c1ccc2c(c1)c(=O)n(C)c(=O)n2C (stereo not given)
CCCCN1C(=O)C(O)(c2c[nH]c3ccccc23)c2cc(Br)ccc21 (stereo not given)
Cn1c(NCCO)nc2c1c(=O)n(Cc1cccc(F)c1)c(=O)n2C
COc1cccc(/C=C/c2nc(C#N)c(NCCc3ccc(OC)c(OC)c3)o2)c1
Cc1ccc(NC(=O)Cn2c(=O)n(Cc3ccco3)c(=O)c3sc4ccccc4c32)cc1C
Oc1c(C(c2ccc(Cl)cc2)N2CCC3(CC2)OCCO3)sc2nc(-c3ccco3)nn12 (stereo not given)
CCOc1ccccc1NC(=O)CSc1nc2cc(OC)c(OC)cc2c2nc(-c3ccccc3)nn12
O=C(Cn1c(=O)oc2ccccc21)Nc1ccc(C(=O)O)cc1
CCn1c(=O)c(C(=O)Nc2ccc(C(C)=O)cc2)nc2ccccc21
O=C(NCCn1cc(SCc2ccc(Cl)cc2)c2ccccc21)c1cccs1
COc1ccc(CNC(=O)c2ccc(NC(=O)N3CCSc4ncccc43)cc2)cc1OC

Activity change, negative = inhibition, inactive:
Cc1cc(C)c(NC(=O)Cn2nc(-c3ccncc3)ccc2=O)c(C)c1 -5.29%
O=C(CN1C(=O)C(c2ccc(F)cc2)=NC12CCCCCC2)Nc1ccccc1Cl -6.56%
COc1ccccc1-c1nc2c(c(SCC(=O)Nc3ccc(C)c(C)c3)n1)Cc1c(CO)cnc(C)c1O2 23%
CCOC(=O)C1CCCN(c2cc(C)nc3c(-c4ccccc4OC)c(C)nn23)C1 (stereo not given) -0.163%
CCc1c(C)sc(NC(=O)c2cc(-c3cccc(Cl)c3)on2)c1C#N -5.86%
CCCCN(CC)CCCNC(=O)c1nn(C)c2c1CS(=O)(=O)c1ccccc1-2 5.49%
Cc1ccc(C)c(NC(=O)Cn2cc(C(=O)c3ccco3)c3ccccc32)c1 0.919%
O=C(c1cc2c(s1)-c1ccccc1OC2)N1CCN(c2ccccc2F)CC1 -0.82%
Cc1c(C)n(C)c2ccc(C(=O)NCCCN3CCCCC3C)cc12 (stereo not given) -1.62%
COc1ccc(C)cc1NC(=O)c1c(C)oc2ncn(CC(C)C)c(=O)c12 -6.14%
CCOC(=O)c1ccc(N2C(=O)c3n[nH]c(-c4ccco4)c3C2c2ccc(O)cc2)cc1 (stereo not given) 2.91%
COc1ccc(C)c2sc(N(Cc3cccnc3)C(=O)C3CCCCC3)nc12 9.48%
CCCN(CCC)CCCNC(=O)C1CCN(S(=O)(=O)CC)CC1 5.87%
Cc1ccc(S(=O)(=O)c2cc3cc(C(=O)O)ccc3oc2=O)cc1 3.45%
Cc1cc(C2CCCCC2)n(O)c(=O)c1 -9.81%
CCOC(=O)Cn1c(=O)n(C2CCCCC2)c2nc(-c3cccc(F)c3)nc(C(N)=O)c21 88.1%
CC(C)c1c(C(=O)Nc2ccccc2)c(-c2ccccc2)c(-c2ccc(F)cc2)n1CC[C@H](O)C[C@@H](O)CC(=O)O -19.4%
Cc1ccc(CSCC(=O)N2CCN(c3ccccc3F)CC2)cc1 -0.811%
CCn1cc(CCC(=O)NCc2ccccc2OC)c2ccccc21 6.67%
Cc1ccc(S(=O)(=O)CC(=O)Nc2sc3c(c2C#N)CCCC3)cc1 2.68%
CCOC(=O)c1c(NC(=O)COc2cc(C)ccc2C(C)C)sc(C)c1C 1.36%
CCOc1ccccc1NC(=O)Cn1c(=O)n(-c2ccc(F)cc2)c(=O)c2sc3ccccc3c21 7.64%
CCOc1ccc(NC(=O)c2nn(C)c3c2CS(=O)(=O)c2ccccc2-3)cc1 4.58%
CCOc1ccc(-c2nnc(SCC(=O)NCCc3ccc(OC)c(OC)c3)nc2-c2ccc(OCC)cc2)cc1 3.49%
O=C(c1cccc(Cl)c1)N1CCN(CCc2ccncc2)CC1 -8.28%
COc1ccc(C(=O)Nc2ccc3nc(N4CCC(C)CC4)cc(C)c3c2)cc1 -0.459%
COc1cc(Cl)c(C)cc1NC(=O)c1cn(C2CCCC2)c(=O)c2c1c1ccccc1n2C 5.06%
Cc1ccc2nc(-c3cc(NC(=O)/C=C/c4ccccc4)ccc3Cl)oc2c1 -21%
COc1ccc(-c2nc(CSc3nncn4c3cc3occc34)c(C)o2)cc1 -13.8%
COc1ccc(Cl)cc1-n1c(/C=C/c2cccc3ccccc23)nc2ccccc2c1=O -7.05%
CCCCN(CCCC)S(=O)(=O)c1ccc2oc(C(=O)NCc3ccc(C)cc3)c(C)c2c1 0.475%
COC(=O)c1ccc2c(c1)N(Cc1ccc(F)cc1)C(=O)c1ccccc1S2 12.7%
Cc1nn(C(=O)c2ccc(Br)cc2)c(C)c1S(=O)(=O)N1CCOCC1 21.4%
Cc1coc2c(C)c3oc(=O)c(CCC(=O)NCCc4ccccc4)c(C)c3cc12 -1.14%
CCOc1ccc(CCNC(c2cccc(Cl)c2)c2nnc(-c3ccccc3)o2)cc1OCC (stereo not given) -25.4%
CCc1ccc(-c2[nH]c3c(c2-c2sc(C)c(C(=O)OC)c2O)c(=O)[nH]c(=O)n3C)cc1 -3.35%
COc1ccc(-c2cc(C(F)(F)F)nc(SCCC(=O)Nc3cc(C)ccc3O)n2)cc1 -3.64%
COc1ccc2c(c1)sc1ncc(C(=O)NCc3ccc(OC(C)C)cc3)c(=O)n12 29.6%
O=C(NCCc1ccc(Cl)cc1)c1cnc2sc(N3CCCCC3)nn2c1=O 13.8%
CCOc1ccc(CCNC(=O)c2cnc3c(-c4ccc(F)cc4)c(C)nn3c2C)cc1OCC 11.5%
O=C(CCCN1CCN(c2ccc(F)cc2)CC1)NC1c2ccccc2CSc2ccccc21 (stereo not given) 6.25%
COc1ccc(NC(=O)c2sc3nc(-c4ccc(OC)cc4)cc(C(F)(F)F)c3c2N)cc1 9.53%
COc1ccccc1OCCSc1nc2ccccc2n1CC(=O)N1CCOCC1 -6.8%
C#CCSc1nc2sc3c(c2c(=O)n1Cc1ccccc1)CCCC3 -4.11%
Cc1ccc(C)c(CN2C(=O)c3ccccc3S(=O)(=O)c3ccc(C(=O)N4CCN(c5ccccc5)CC4)cc32)c1 13.1%
Cc1ccccc1Nc1c(-c2ccco2)nc2c(C)cccn12 -14.5%
Cc1ccc(NC(=O)CCS(=O)(=O)c2cccc3nonc23)cc1Cl -10.6%
CC1CCCCN1S(=O)(=O)c1ccc(C(=O)Nc2sc3c(c2C(N)=O)CC(C)(C)NC3(C)C)cc1 (stereo not given) 0.597%
COc1ccc(CCNC(=O)c2c(O)nc3c(C)cccn3c2=O)cc1 0.634%
COc1ccc(C(=O)N2c3ccccc3C(C)(c3ccc(Cl)cc3)CC2(C)C)cc1 (stereo not given) -0.439%
Cc1ccc(-c2onc(C)c2C)cc1S(=O)(=O)N1c2ccccc2CC1C (stereo not given) -12.1%
CCc1cncnc1N1CCN(Cc2nc3ccc(C(F)(F)F)cc3[nH]2)CC1 -13.5%
CCOCCCNC(=O)c1[nH]c2cc(C)ccc2c1Sc1ccc(Cl)cc1 10.1%
CCOC(=O)c1ccc(-n2c(C)nc3c(cnn3-c3ccc(Cl)cc3)c2=O)cc1 -14.8%
O=S1(=O)c2ccccc2N(Cc2cccc(C(F)(F)F)c2)c2ccccc21 -22.7%
CCCCN(CCCC)CCNC(=O)Cn1nc(CC)n2c(cc3sc(C)cc32)c1=O -1.07%
Cc1cccc(NC(=O)Cn2c(=O)n(CCCS(=O)(=O)C3CCCCC3)c(=O)c3ccccc32)c1 -9.23%
COc1cc(OC)c(N(C)C(=O)CCNC(=O)Cn2cnc3ccccc3c2=O)cc1Cl -6.89%
CN(C)CCNC(=O)Cn1c(=O)c2cccn2c2ccc(F)cc21 -26.6%
COc1cccc(-c2nc(SCC(=O)Nc3ccc4c(c3)OCCO4)c(-c3ccccc3)[nH]2)c1 -16.9%
CCOCCc1nn2c(=O)cc(COC(=O)c3ccccc3NC(=O)C3CCCCC3)nc2s1 12.7%
COc1ccc(Cc2ccc(NC(N)=O)cc2)cc1-c1cccc(Cl)c1 2.88%
COc1ccc(-c2oc3ncn4nc(COc5ccc(C)cc5)nc4c3c2-c2ccc(OC)cc2)cc1 -9.71%
COc1ccc(OC)c(-c2noc(N3CCN(c4ccc(C(C)=O)cc4)CC3)n2)c1 6.36%
CCOC(=O)c1c(NC(=O)CCCOc2ccc(Cl)cc2)sc2c1CCC2 2.51%
CCOC(=O)Cn1c(=O)oc2cc(S(=O)(=O)N3CCN(c4ccccc4OC)CC3)ccc21 -8.27%
COc1cccc(CN(C(=O)c2ccc(C(C)(C)C)cc2)C2CCS(=O)(=O)C2)c1 (stereo not given) 1.11%
COc1cccc2c1Oc1nc(-c3ccccc3)nc(SCC(=O)Nc3ccccc3)c1C2 14.8%
COCCCNC(=O)c1ccc(Cn2c(=O)c3ccccc3n(Cc3ccccc3C)c2=O)cc1 -24%
CCOc1ccc(-c2nnc(SCC(=O)Nc3cc(F)ccc3F)o2)cc1 -22.5%
Cc1ccccc1NC(=O)c1c(C)oc2ccc(O)c(CN3CCC(C)CC3)c12 -1.88%
